These results are taken from US20250333515A1.

In test [1] the target is biotinylated recombinant human CLL-1 extracellular domain protein, isoform with glutamine at amino acid position 244 (human) (UniProt Q5QGZ9). As to the kind of experiment: BLItz, 1:1 model (Q244 per FIG. 12B).
The target of test [2] is biotinylated recombinant human CLL-1 extracellular domain protein, isoform with lysine at amino acid position 244 (human) (UniProt Q5QGZ9). As to the kind of experiment: Exp 1 (= Octet, CLL-1-K244 of FIG. 12B).
Test [3] concerns the target biotinylated recombinant human CLL-1 extracellular domain protein, isoform with glutamine at amino acid position 244 (human) (UniProt Q5QGZ9). As to the kind of experiment: Exp 2 (= Blitz, CLL-1-Q244 of FIG. 12B).

B1: Anti-CLL-1 Binder Clone 39 (scFv, not shown: small tags and cut ends)
scFv: [no letters for about 100 residues]GGGGSGGGGSGGGGSQVQLVQSGAEVKKPGASVKVSCKASGYTFTGYYMHWVRQAPGQGLEWMGWMNPSSGNTGYAHEFQGRVTMTRNTSTGTAYMELSGLRSEDTAVYYCARGDTGDSFDYWGQGTLVTVSS
As to B1, in test [1], the dissociation constant (Kd) – broadly, a measure of binding affinity in units of concentration – came to 19 nM; the koff (in general, a measure of how fast the partners let go of each other) was 0.0011 s⁻¹; the kon (in general, the second-order rate constant of association) was determined as 59000 M⁻¹ s⁻¹. For the same molecule, the Kd in test [2] is 2.32 nM. Besides, in test [3], the Kd was 19 nM.

B2: Anti-CLL-1 Binder Clone 5 (scFv, not shown: small tags and cut ends)
scFv: [no letters for about 100 residues]GGGGSGGGGSGGGGSQVQLVESGGGVVQPGRSLRLSCAASGFTFSSYGMHWVRQAPGKGLEWVAFISHDGSNKYYADSVKGRSTISRDNSKSTLFLQMNSLRDEDTAVYFCAREGQLTTSWDFFDYWGHGTLVTVSS
As for B2, in test [1], the dissociation constant Kd was found to be 20 nM, the koff was found to be 0.0015 s⁻¹ and the kon is 72000 M⁻¹ s⁻¹. Further, the Kd in test [2] was found to be 5.37 nM. In addition, the Kd in test [3] is 20 nM.
